# Measured values taken from a collection of fitness landscapes (doi:10.1016/j.celrep.2020.107928).
# Over roughly 81,000 sequences, “one-hybrid fitness for binding parS DNA” has its median near -0.17; the highest 2% begin near 0.51. Some of the results follow.
# B1: Caulobacter ParB omega fusion; a variant is named by its letters at X, in order, B8GW30 (parent)
# chain: MESVVVGEPGMSEGRRGLGRGLSALLGEVDAAPAQAPGEQLGGSREAPIEILQRNPDQPRRTFREEDLEDLSNSIREKGVLQPILVRPSPDTAGEYQIVAGERAWRAAQRAGLKTVPIMVRELDDLAVLEIGIIENVQRADLNVLEEALSYKVLMEKFERTQENIAQTIGKSXSHVANXMRLLXLPDEVQSYLVSGELTAXHARAIAAAADPVALAKQIIEGGLSVRETEALARKAPNLSAGKSKGGRPPRVKDTDTQALESDLSSVLGLDVSIDHRGSTGTLTITYATLEQLDDLCNRLTRGI
# Variants of: B1
# Test: one-hybrid fitness for binding parS DNA (scaled: cognate 1, non-cognate 0); higher = stronger binding
# Settings: with parS DNA site
# Summary of the method: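 Bacterial one-hybrid selection in E. coli USO rpoZ- hisB- pyrF- with a HIS3 reporter carrying the site 19 bp from the promoter, screening Caulobacter ParB libraries with four specificity codons randomised (NNS). Cells grew 48 hours at 37°C on M9-minus-histidine plus 0.1 mM IPTG and 5 mM 3-AT. Plasmids before and after selection were Illumina-sequenced, three replicate libraries pooled, and variants under 10 reads dropped. Fitness is the log change in variant-to-wild-type read ratio, rescaled to cognate 1, non-cognate 0.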
row,Variant,one-hybrid fitness for binding parS DNA
1,RKCT,0.803
2,MVSC,≤ 0.2
3,AQEK,≤ 0.2
4,QTLT,≤ 0.2
5,VSLR,≤ 0.2
6,GQAG,≤ 0.2
7,QANQ,≤ 0.2
8,TLCA,≤ 0.2
9,QSVR,≤ 0.2
10,SRTK,≤ 0.2
11,EWLT,≤ 0.2
12,PLQF,≤ 0.2
13,MHTE,≤ 0.2
14,MFHS,≤ 0.2
15,KMLW,≤ 0.2
16,VTVH,≤ 0.2
17,EMSW,≤ 0.2
18,KGWL,≤ 0.2
19,RDLN,≤ 0.2
20,AHAF,≤ 0.2
21,RMAC,0.994
22,VWPC,≤ 0.2
23,VDSN,≤ 0.2
24,QTPC,≤ 0.2

row,Variant,one-hybrid fitness for binding parS DNA
1,QIMC,≤ 0.2
2,SSMH,≤ 0.2
3,ECIV,≤ 0.2
4,FINF,≤ 0.2
5,YWWR,≤ 0.2
6,AATM,≤ 0.2
7,CKMG,≤ 0.2
8,MGRI,≤ 0.2
9,RCYH,0.301
10,QSHG,≤ 0.2
11,EGIC,≤ 0.2
12,KYKM,≤ 0.2
13,MLLP,≤ 0.2
14,QVMY,≤ 0.2
15,GSLK,≤ 0.2
16,PETM,≤ 0.2
17,RQMW,0.232
18,QSCS,≤ 0.2
19,YRFS,≤ 0.2
20,PHPH,≤ 0.2
21,MARV,≤ 0.2
22,RFLH,0.217
23,NMAP,≤ 0.2
24,VDRG,≤ 0.2

row,Variant,one-hybrid fitness for binding parS DNA
1,VTVT,≤ 0.2
2,YNNK,≤ 0.2
3,KPVC,≤ 0.2
4,QRPH,≤ 0.2
5,CPEG,≤ 0.2
6,PPKV,≤ 0.2
7,EPKG,≤ 0.2
8,PPDN,≤ 0.2
9,VFFA,≤ 0.2
10,EAFG,≤ 0.2
11,RAHL,≤ 0.2
12,GNIG,≤ 0.2
13,DDCV,≤ 0.2
14,ELRK,≤ 0.2
15,SKLL,≤ 0.2
16,RGRC,0.798
17,RCHH,≤ 0.2
18,GWIG,≤ 0.2
19,MYER,≤ 0.2
20,LNHG,≤ 0.2
21,NEYS,≤ 0.2
22,REKI,≤ 0.2
23,AQSV,≤ 0.2
24,TNRD,≤ 0.2

row,Variant,one-hybrid fitness for binding parS DNA
1,GLGC,≤ 0.2
2,TEHD,≤ 0.2
3,PATM,≤ 0.2
4,GVAR,≤ 0.2
5,YTAA,≤ 0.2
6,INDI,≤ 0.2
7,KGIT,≤ 0.2
8,QAHV,≤ 0.2
9,VIGS,≤ 0.2
10,HTHK,≤ 0.2
11,LNRR,≤ 0.2
12,AWNR,≤ 0.2
13,RTAC,0.98
14,SFDF,≤ 0.2
15,QHFA,≤ 0.2
16,HLPV,≤ 0.2
17,YPLC,≤ 0.2
18,RMSD,≤ 0.2
19,IGST,≤ 0.2
20,ATSV,≤ 0.2
21,NLSF,≤ 0.2
22,HYED,≤ 0.2
23,HGRM,≤ 0.2
24,RRAV,≤ 0.2

row,Variant,one-hybrid fitness for binding parS DNA
1,KRDA,≤ 0.2
2,ERRS,≤ 0.2
3,NIFD,≤ 0.2
4,PSVE,≤ 0.2
5,LNTE,≤ 0.2
6,EALG,≤ 0.2
7,STLE,≤ 0.2
8,LCSE,≤ 0.2
9,LSIM,≤ 0.2
10,YEEM,≤ 0.2
11,AYDP,≤ 0.2
12,GLNG,≤ 0.2
13,KRNT,≤ 0.2
14,PVRA,≤ 0.2
15,VQGI,≤ 0.2
16,CTAV,≤ 0.2
17,SHVG,≤ 0.2
18,IQAT,≤ 0.2
19,FLGV,≤ 0.2
20,YYVQ,≤ 0.2
21,YTTW,≤ 0.2
22,LPGK,≤ 0.2
23,RFRW,0.237
24,VVCS,≤ 0.2

row,Variant,one-hybrid fitness for binding parS DNA
1,KATM,≤ 0.2
2,FNWR,≤ 0.2
3,RVVE,≤ 0.2
4,TDPR,≤ 0.2
5,QFQC,≤ 0.2
6,SHTC,≤ 0.2
7,PING,≤ 0.2
8,PMPA,≤ 0.2
9,VGMR,≤ 0.2
10,ISDN,0.207
11,PFVR,≤ 0.2
12,ASIV,≤ 0.2
13,GPRC,≤ 0.2
14,KARW,≤ 0.2
15,SYSC,≤ 0.2
16,HLML,≤ 0.2
17,QYNG,≤ 0.2
18,CRLI,≤ 0.2
19,RWAG,0.72
20,NNCL,≤ 0.2
21,KEMR,≤ 0.2
22,QIKG,≤ 0.2
23,YRHA,≤ 0.2
24,FWFS,≤ 0.2

row,Variant,one-hybrid fitness for binding parS DNA
1,RITN,0.409
2,GLES,≤ 0.2
3,RYGI,≤ 0.2
4,GQNS,≤ 0.2
5,KRDY,≤ 0.2
6,LTCR,≤ 0.2
7,TKTT,≤ 0.2
8,WFKT,≤ 0.2
9,ERNK,≤ 0.2
10,NDRK,≤ 0.2
11,YRCL,≤ 0.2
12,NPKG,≤ 0.2
13,FPAL,≤ 0.2
14,PAKR,≤ 0.2
15,TQLW,≤ 0.2
16,SETR,≤ 0.2
17,RPWC,≤ 0.2
18,FQIS,≤ 0.2
19,WAPS,≤ 0.2
20,AGWN,≤ 0.2
21,EPDG,≤ 0.2
22,CRQY,≤ 0.2
23,RDKF,≤ 0.2
24,RPQV,≤ 0.2

row,Variant,one-hybrid fitness for binding parS DNA
1,NFAV,≤ 0.2
2,MVWG,≤ 0.2
3,MKET,≤ 0.2
4,KTDL,≤ 0.2
5,GHSI,≤ 0.2
6,NCGR,≤ 0.2
7,WLHG,≤ 0.2
8,MSCE,≤ 0.2
9,YKRH,≤ 0.2
10,MSKI,≤ 0.2
11,DKHT,≤ 0.2
12,QMGC,≤ 0.2
13,VQPR,≤ 0.2
14,DTNS,≤ 0.2
15,IQYA,≤ 0.2
16,HSRS,≤ 0.2
17,AQIA,≤ 0.2
18,SRKV,≤ 0.2
19,RKYL,≤ 0.2
20,MGCR,≤ 0.2
21,FNNA,≤ 0.2
22,NSRS,≤ 0.2
23,RRVN,0.268
24,PWSP,≤ 0.2

row,Variant,one-hybrid fitness for binding parS DNA
1,RKAK,≤ 0.2
2,NLLC,≤ 0.2
3,DQCR,≤ 0.2
4,HKAR,≤ 0.2
5,LNDS,≤ 0.2
6,TDTD,≤ 0.2
7,PRRM,≤ 0.2
8,CRWR,≤ 0.2
9,TTQA,≤ 0.2
10,CMEG,≤ 0.2
11,AQSQ,≤ 0.2
12,TEPP,≤ 0.2
13,PQIL,≤ 0.2
14,KCKE,≤ 0.2
15,STQF,≤ 0.2
16,PMIW,≤ 0.2
17,QHEV,≤ 0.2
18,FQGG,≤ 0.2
19,QSPE,≤ 0.2
20,HKHT,≤ 0.2
21,QREI,≤ 0.2
22,QAKL,≤ 0.2
23,QEYT,≤ 0.2
24,FCHY,≤ 0.2

row,Variant,one-hybrid fitness for binding parS DNA
1,FIGS,≤ 0.2
2,KTKV,≤ 0.2
3,PTST,≤ 0.2
4,TIQY,≤ 0.2
5,KRRE,≤ 0.2
6,ICQR,≤ 0.2
7,RHSE,≤ 0.2
8,SLSQ,≤ 0.2
9,PPVK,≤ 0.2
10,TPNV,≤ 0.2
11,QVQW,≤ 0.2
12,WAYR,≤ 0.2
13,HDGS,≤ 0.2
14,STYL,≤ 0.2
15,PLWE,≤ 0.2
16,NANN,≤ 0.2
17,LQCS,≤ 0.2
18,NVIV,≤ 0.2
19,VIPR,≤ 0.2
20,QDRC,≤ 0.2
21,PWPS,≤ 0.2
22,NMKQ,≤ 0.2
23,RSTG,1
24,AYNS,≤ 0.2

row,Variant,one-hybrid fitness for binding parS DNA
1,FTCL,≤ 0.2
2,CNSI,≤ 0.2
3,TPRK,≤ 0.2
4,QKHF,≤ 0.2
5,EANI,≤ 0.2
6,HYNR,≤ 0.2
7,EDPL,≤ 0.2
8,TTAT,≤ 0.2
9,MSDS,≤ 0.2
10,PQRW,≤ 0.2
11,SNAV,≤ 0.2
12,REVI,≤ 0.2
13,PKGG,≤ 0.2
14,LMTW,≤ 0.2
15,KHKI,≤ 0.2
16,QKGA,≤ 0.2
17,TEMR,≤ 0.2
18,VYHT,≤ 0.2
19,WPGS,≤ 0.2
20,GWRW,≤ 0.2
21,GHDF,≤ 0.2
22,PSKW,≤ 0.2
23,FPPS,≤ 0.2
24,PSCW,≤ 0.2

row,Variant,one-hybrid fitness for binding parS DNA
1,EVFS,≤ 0.2
2,REKA,≤ 0.2
3,PWLS,≤ 0.2
4,GVND,≤ 0.2
5,QVVN,≤ 0.2
6,FPDF,≤ 0.2
7,VRNR,≤ 0.2
8,TPPG,≤ 0.2
9,FNER,≤ 0.2
10,RGWT,0.388
11,SQTS,≤ 0.2
12,MLIG,≤ 0.2
13,QQAV,≤ 0.2
14,HMQF,≤ 0.2
15,EGST,≤ 0.2
16,RCAM,0.351
17,QIPF,≤ 0.2
18,LKPL,≤ 0.2
19,LFLW,≤ 0.2
20,SNCM,≤ 0.2
21,NKNC,≤ 0.2
22,CCTT,≤ 0.2
23,VYLT,≤ 0.2
24,SVML,≤ 0.2

row,Variant,one-hybrid fitness for binding parS DNA
1,LMQK,≤ 0.2
2,QAPE,≤ 0.2
3,AATI,≤ 0.2
4,IAIL,≤ 0.2
5,TCVD,≤ 0.2
6,VLHM,≤ 0.2
7,CCST,≤ 0.2
8,LVST,≤ 0.2
9,MKNG,≤ 0.2
10,MGKV,≤ 0.2
11,ATMC,≤ 0.2
12,QLML,≤ 0.2
13,FQPT,≤ 0.2
14,SHPE,≤ 0.2
15,DCDG,≤ 0.2
16,IFMT,≤ 0.2
17,QFRA,≤ 0.2
18,QVCT,≤ 0.2
